# Out of some 310,000 compounds screened, about 2,200 (0.71%) showed an effect of 50% or more. The effect is printed as a negative number. This is one part of the list.
# Target: human ether-à-go-go-related gene (hERG) potassium channel (human, UniProt Q12809)
# Assay: primary screen, population patch clamp on CHO cells stably expressing hERG
# Sequence of human ether-à-go-go-related gene (hERG) potassium channel (Q12809 whole entry, looked up): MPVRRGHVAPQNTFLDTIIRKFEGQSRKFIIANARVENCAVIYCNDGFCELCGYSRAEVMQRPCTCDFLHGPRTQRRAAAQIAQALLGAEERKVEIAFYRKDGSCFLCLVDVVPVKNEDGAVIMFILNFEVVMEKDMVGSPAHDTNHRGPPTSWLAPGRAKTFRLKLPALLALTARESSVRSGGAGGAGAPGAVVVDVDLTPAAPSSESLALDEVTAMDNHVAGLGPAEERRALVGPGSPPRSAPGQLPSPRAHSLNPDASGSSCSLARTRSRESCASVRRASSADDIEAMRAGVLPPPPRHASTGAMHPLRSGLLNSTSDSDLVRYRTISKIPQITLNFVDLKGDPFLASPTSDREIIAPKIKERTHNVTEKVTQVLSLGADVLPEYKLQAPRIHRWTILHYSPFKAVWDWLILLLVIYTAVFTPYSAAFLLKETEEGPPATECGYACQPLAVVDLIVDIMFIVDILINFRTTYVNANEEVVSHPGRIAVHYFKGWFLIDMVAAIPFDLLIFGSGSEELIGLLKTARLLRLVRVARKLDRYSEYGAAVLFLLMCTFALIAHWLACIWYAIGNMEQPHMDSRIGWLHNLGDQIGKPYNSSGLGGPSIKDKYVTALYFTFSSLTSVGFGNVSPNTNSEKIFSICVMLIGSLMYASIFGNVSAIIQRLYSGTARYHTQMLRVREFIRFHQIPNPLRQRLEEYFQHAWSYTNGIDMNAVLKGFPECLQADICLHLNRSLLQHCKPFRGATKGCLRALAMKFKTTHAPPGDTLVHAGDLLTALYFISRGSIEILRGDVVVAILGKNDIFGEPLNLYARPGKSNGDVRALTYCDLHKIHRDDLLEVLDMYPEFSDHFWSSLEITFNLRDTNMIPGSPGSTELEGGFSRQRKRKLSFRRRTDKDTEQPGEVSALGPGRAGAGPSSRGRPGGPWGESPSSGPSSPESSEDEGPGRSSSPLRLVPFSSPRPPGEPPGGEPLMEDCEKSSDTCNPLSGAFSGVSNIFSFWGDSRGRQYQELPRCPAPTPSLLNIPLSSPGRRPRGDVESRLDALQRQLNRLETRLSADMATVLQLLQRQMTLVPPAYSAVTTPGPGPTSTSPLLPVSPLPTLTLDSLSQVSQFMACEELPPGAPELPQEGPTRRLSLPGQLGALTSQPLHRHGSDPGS
row,SMILES,"hERG current change (%, negative = inhibition) at 1uM [%]"
1,Cc1c(NC(=O)CSc2nc(N)cc(N)n2)c(=O)n(-c2ccccc2)n1C,14.6
2,O=C1NC(=O)C(=Cc2ccc3ccccc3c2)C(=O)N1,14
3,O=C(O)C(=O)O.O=[N+]([O-])c1ccc(S(=O)(=O)N2CCN(Cc3c[nH]c4ccccc34)CC2)cc1,-10.1
4,Cc1c2cnn(CC(=O)NCCN3CCOCC3)c(=O)c2c(C)n1Cc1ccccc1,9.26
5,CCOc1cc(C(=O)OCC(=O)N(C)c2ccccc2)cc(OCC)c1OCC,9.29
6,O=C(Nc1ccc(N2CCOCC2)c(Cl)c1)c1cccc(F)c1,1.27
7,O=C(COc1cc(F)ccc1[N+](=O)[O-])Nc1cccc(S(=O)(=O)NC2=NCCC2)c1,12.1
8,COc1ccc(CNC(=O)c2coc(=O)c3ccccc23)c(OC)c1,-7.38
9,CC(C)(C)NC(=O)CCc1ncc(C(F)(F)F)cc1Cl,5.5
10,Cc1ccc(C(CNC(=O)c2ccco2)N2CCN(C)CC2)cc1 (stereo not drawn),9.31
11,Cc1c(NC(=O)C(C)OC(=O)C(NC(=O)c2ccco2)C(C)C)c(=O)n(-c2ccccc2)n1C (stereo not drawn),-16
12,Cc1ccc(NC(=O)CSc2nc3ccccc3nc2N2CCOCC2)cc1,4.56
13,O=[N+]([O-])c1ccc(CP(=O)(c2ccccc2)c2ccccc2)cc1,8.71
14,COc1ccc2nc(SCC(=O)NC3CCCCC3)[nH]c2c1,12
15,COc1ccc(CCNC(=O)Cn2cnc3c2c(=O)n(C)c(=O)n3C)cc1OC,8.26
16,CC1CCN(C(C(=O)Nc2ccc3c(c2)OCO3)c2ccccc2)CC1 (stereo not drawn),5.73
17,COc1ccc(-n2c(=O)[nH]c3ccccc3c2=O)cc1,13.5
18,O=C(CCc1c[nH]c2ccccc12)N1CCN(c2ccc(O)cc2)CC1,4.41
19,COc1cc([N+](=O)[O-])cc(/C=N/NC(=O)c2cccnc2)c1O,9.72
20,CC(C)(C)OC(=O)N1CCCC(C(=O)CC#N)C1 (stereo not drawn),10.1
21,COc1ccc(OC)c(-c2cc(C(=O)Nc3cccc(Cl)c3)no2)c1,2.87
22,COc1cc(OC)c(C(=O)OCCCOC(=O)c2cc(OC)c(OC)cc2OC)cc1OC,2.46
23,CCN(CC)CCCNC(=O)C1CCC(=O)N(c2ccc(OC)cc2)C1c1ccc(F)cc1 (stereo not drawn),10.3
24,O=C(CSC1CC(=O)N(c2ccc(C(=O)O)cc2)C1=O)Nc1ccc(Cl)cc1 (stereo not drawn),7.5

# Source: PMC4336329 (PLoS ONE, 2015)
